# Data from the supplement of paper PMC8728848.
# The other results are listed elsewhere or left out.
# B1: PX14379A-bvu-539-28-539 (Bacteroides vulgatus) (protein)
# chain: EPYSEIIEEDYVPTEADEIALLATTYSQLRFVMDWYGLFDLQEESGDVIVTPTRPNGWDDGGTYKQMHKHTWDNQQGQPQSIWDYCYKGIANANKILKRADEGFFTEESKPKVVAEVKGVRALWYSILCDTHGNIPIQTSFSEEVPVQSTRKQVFDFIINELKEVMPNLPTEVNKSTYGRLTQWGAKCLMARMYLNAGVYTGTPMWNECLEQCNDIINSGLFSLETNYTDIFKTENSGCVETIFAIPYDEVYNEGDNNGPVFGAHMKFLSSNSRKVFNMQTTPWGGSAANPQFINSYDPDDMRLKYTWLQGDQYSPDGVLITTFPNKLPSIYKTDTDDGYRVGKYEIKVGAKSLLSNDFPYFRYTEVLLMKAECLLRLGQNETEAAHIVSQIRERAFRESAHPEKATVDAAWLKGDTHINYGTLDEKGQIDDAGNTEVVELGGLYDEWGWEFAAEARRRTDMIRFGTYQKKSWFNHTPTANDLNGNSILFPIHLDHLNTNPNLQQNPGYAGK
# Experiments:
# Assay in all cases: glycan array binding signal (z-score within array); higher = stronger binding
# Settings in all cases: glycan notation: IUPAC condensed, linker removed
# [1] = target: Gal(b1-4)GlcNAc(b1-3)Gal(b1-4)GlcNAc(b1-3)Gal(b1-4)GlcNAc(b1-3)Gal(b1-4)GlcNAc(b1-2)Man(a1-3)[Gal(b1-4)GlcNAc(b1-3)Gal(b1-4)GlcNAc(b1-3)Gal(b1-4)GlcNAc(b1-3)Gal(b1-4)GlcNAc(b1-2)Man(a1-6)]Man(b1-4)GlcNAc(b1-4)[Fuc(a1-6)]GlcNAc
# Summary of the method: (§1)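 The binding signal is a Z-score computed within each array and averaged over linkers. Arrays of the same protein sequence at different concentrations or buffers were also averaged together. Data originate from 3228 arrays in the Consortium for Functional Glycomics database, kept only where the protein sequence was available.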
# [2] = target: Gal(b1-4)GlcNAc(b1-3)Gal(b1-4)GlcNAc(b1-3)Gal(b1-4)GlcNAc(b1-3)Gal(b1-4)GlcNAc(b1-2)[Gal(b1-4)GlcNAc(b1-3)Gal(b1-4)GlcNAc(b1-3)Gal(b1-4)GlcNAc(b1-3)Gal(b1-4)GlcNAc(b1-6)]Man(a1-6)[Gal(b1-4)GlcNAc(b1-3)Gal(b1-4)GlcNAc(b1-3)Gal(b1-4)GlcNAc(b1-3)Gal(b1-4)GlcNAc(b1-2)Man(a1-3)]Man(b1-4)GlcNAc(b1-4)[Fuc(a1-6)]GlcNAc
# Summary of the method: as §1
# [3] = target: Gal(b1-4)GlcNAc(b1-3)Gal(b1-4)GlcNAc(b1-3)Gal(b1-4)GlcNAc(b1-3)Gal(b1-4)GlcNAc(b1-3)Gal(b1-4)GlcNAc(b1-2)Man(a1-3)[Gal(b1-4)GlcNAc(b1-3)Gal(b1-4)GlcNAc(b1-3)Gal(b1-4)GlcNAc(b1-3)Gal(b1-4)GlcNAc(b1-3)Gal(b1-4)GlcNAc(b1-2)Man(a1-6)]Man(b1-4)GlcNAc(b1-4)GlcNAc
# Summary of the method: as §1
# [4] = target: Gal(b1-4)GlcNAc(b1-3)Gal(b1-4)GlcNAc(b1-3)Gal(b1-4)GlcNAc(b1-3)Gal(b1-4)GlcNAc(b1-3)Gal(b1-4)GlcNAc(b1-2)Man(a1-3)[Gal(b1-4)GlcNAc(b1-3)Gal(b1-4)GlcNAc(b1-3)Gal(b1-4)GlcNAc(b1-3)Gal(b1-4)GlcNAc(b1-3)Gal(b1-4)GlcNAc(b1-2)Man(a1-6)]Man(b1-4)GlcNAc(b1-4)[Fuc(a1-6)]GlcNAc
# Summary of the method: as §1
# [5] = target: Gal(b1-4)GlcNAc(b1-3)Gal(b1-4)GlcNAc(b1-3)Gal(b1-4)GlcNAc(b1-3)Gal(b1-4)GlcNAc(b1-3)Gal(b1-4)GlcNAc(b1-2)[Gal(b1-4)GlcNAc(b1-3)Gal(b1-4)GlcNAc(b1-3)Gal(b1-4)GlcNAc(b1-3)Gal(b1-4)GlcNAc(b1-3)Gal(b1-4)GlcNAc(b1-6)]Man(a1-6)[Gal(b1-4)GlcNAc(b1-3)Gal(b1-4)GlcNAc(b1-3)Gal(b1-4)GlcNAc(b1-3)Gal(b1-4)GlcNAc(b1-3)Gal(b1-4)GlcNAc(b1-2)Man(a1-3)]Man(b1-4)GlcNAc(b1-4)[Fuc(a1-6)]GlcNAc
# Summary of the method: as §1
# [6] = target: Gal(b1-4)GlcNAc(b1-3)Gal(b1-4)GlcNAc(b1-3)Gal(b1-4)GlcNAc(b1-3)Gal(b1-4)GlcNAc(b1-3)Gal(b1-4)GlcNAc(b1-3)Gal(b1-4)GlcNAc(b1-2)Man(a1-3)[Gal(b1-4)GlcNAc(b1-3)Gal(b1-4)GlcNAc(b1-3)Gal(b1-4)GlcNAc(b1-3)Gal(b1-4)GlcNAc(b1-3)Gal(b1-4)GlcNAc(b1-3)Gal(b1-4)GlcNAc(b1-2)Man(a1-6)]Man(b1-4)GlcNAc(b1-4)GlcNAc
# Summary of the method: as §1
# [7] = target: Gal(b1-4)GlcNAc(b1-3)Gal(b1-4)GlcNAc(b1-3)GalNAc
# Summary of the method: as §1
# [8] = target: Gal(b1-4)GlcNAc(b1-3)Gal(b1-4)GlcNAc(b1-3)[Gal(b1-4)GlcNAc(b1-3)Gal(b1-4)GlcNAc(b1-6)]GalNAc
# Summary of the method: as §1
# [9] = target: Gal(b1-4)GlcNAc(b1-3)Gal(b1-4)GlcNAc(b1-6)[Gal(b1-3)]GalNAc
# Summary of the method: as §1
# [10] = target: Gal(b1-4)GlcNAc(b1-3)Gal(b1-4)[Fuc(a1-3)]GlcNAc(b1-3)Gal(b1-4)[Fuc(a1-3)]GlcNAc
# Summary of the method: as §1
# [11] = target: Gal(b1-4)GlcNAc(b1-3)GalNAc
# Summary of the method: as §1
# [12] = target: Gal(b1-4)GlcNAc(b1-3)[Fuc(a1-3)GlcNAc(b1-6)]Gal(b1-4)Glc
# Summary of the method: as §1
# [13] = target: Gal(b1-4)GlcNAc(b1-3)[Gal(b1-4)GlcNAc(b1-6)]Gal(b1-4)GlcNAc
# Summary of the method: as §1
# [14] = target: Gal(b1-4)GlcNAc(b1-3)[GlcNAc(b1-6)]Gal(b1-4)GlcNAc
# Summary of the method: as §1
# [15] = target: Gal(b1-4)GlcNAc(b1-6)Gal(b1-4)GlcNAc
# Summary of the method: as §1
# [16] = target: Gal(b1-4)GlcNAc(b1-6)GalNAc
# Summary of the method: as §1
# [17] = target: Gal(b1-4)GlcNAc(b1-6)[Gal(b1-3)]GalNAc
# Summary of the method: as §1
# [18] = target: Gal(b1-4)GlcNAc(b1-6)[Gal(b1-4)GlcNAc(b1-3)]GalNAc
# Summary of the method: as §1
# Gal(b1-4)GlcNAc6P = target: Gal(b1-4)GlcNAc6P
# Summary of the method: as §1
# Gal(b1-6)Gal = target: Gal(b1-6)Gal
# Summary of the method: as §1
# Gal3S(b1-3)GalNAc = target: Gal3S(b1-3)GalNAc
# Summary of the method: as §1
# Gal3S(b1-3)GlcNAc = target: Gal3S(b1-3)GlcNAc
# Summary of the method: as §1
# [19] = target: Gal3S(b1-3)[Fuc(a1-4)]GlcNAc
# Summary of the method: as §1
# Gal3S(b1-4)Glc = target: Gal3S(b1-4)Glc
# Summary of the method: as §1
# Gal3S(b1-4)Glc6S = target: Gal3S(b1-4)Glc6S
# Summary of the method: as §1
# Gal3S(b1-4)GlcNAc = target: Gal3S(b1-4)GlcNAc
# Summary of the method: as §1
# [20] = target: Gal3S(b1-4)[Fuc(a1-3)]Glc6S
# Summary of the method: as §1
# [21] = target: Gal3S(b1-4)[Fuc(a1-3)]GlcNAc
# Summary of the method: as §1
# [22] = target: Gal3S(b1-4)[Fuc(a1-3)]GlcNAc6S
# Summary of the method: as §1
# Gal3S4S(b1-4)GlcNAc = target: Gal3S4S(b1-4)GlcNAc
# Summary of the method: as §1
# Gal3S6S(b1-4)GlcNAc = target: Gal3S6S(b1-4)GlcNAc
# Summary of the method: as §1
# Gal3S6S(b1-4)GlcNAc6S = target: Gal3S6S(b1-4)GlcNAc6S
# Summary of the method: as §1
# Gal4S(b1-4)GlcNAc = target: Gal4S(b1-4)GlcNAc
# Summary of the method: as §1
# Gal4S6S(b1-4)GlcNAc = target: Gal4S6S(b1-4)GlcNAc
# Summary of the method: as §1
# Gal6P(b1-4)GlcNAc = target: Gal6P(b1-4)GlcNAc
# Summary of the method: as §1
# Gal6S(b1-3)GlcNAc = target: Gal6S(b1-3)GlcNAc
# Summary of the method: as §1
# Gal6S(b1-3)GlcNAc6S = target: Gal6S(b1-3)GlcNAc6S
# Summary of the method: as §1
# Gal6S(b1-4)Glc = target: Gal6S(b1-4)Glc
# Summary of the method: as §1
binder,measurement,setting,value
B1,glycan array binding signal (z-score),[1],0.984
same,glycan array binding signal (z-score),[2],0.286
same,glycan array binding signal (z-score),[3],9.41
same,glycan array binding signal (z-score),[4],0.094
same,glycan array binding signal (z-score),[5],0.298
same,glycan array binding signal (z-score),[6],0.819
same,glycan array binding signal (z-score),[7],0.271
same,glycan array binding signal (z-score),[8],0.064
same,glycan array binding signal (z-score),[9],0.048
same,glycan array binding signal (z-score),[10],-0.088
same,glycan array binding signal (z-score),[11],-0.16
same,glycan array binding signal (z-score),[12],-0.262
same,glycan array binding signal (z-score),[13],0.405
same,glycan array binding signal (z-score),[14],-0.435
same,glycan array binding signal (z-score),[15],-0.415
same,glycan array binding signal (z-score),[16],0.024
same,glycan array binding signal (z-score),[17],-0.324
same,glycan array binding signal (z-score),[18],-0.059
same,glycan array binding signal (z-score),Gal(b1-4)GlcNAc6P,0.214
same,glycan array binding signal (z-score),Gal(b1-6)Gal,-0.177
same,glycan array binding signal (z-score),Gal3S(b1-3)GalNAc,-0.302
same,glycan array binding signal (z-score),Gal3S(b1-3)GlcNAc,-0.072
same,glycan array binding signal (z-score),[19],-0.301
same,glycan array binding signal (z-score),Gal3S(b1-4)Glc,-0.201
same,glycan array binding signal (z-score),Gal3S(b1-4)Glc6S,-0.224
same,glycan array binding signal (z-score),Gal3S(b1-4)GlcNAc,-0.224
same,glycan array binding signal (z-score),[20],0.048
same,glycan array binding signal (z-score),[21],-0.454
same,glycan array binding signal (z-score),[22],-0.291
same,glycan array binding signal (z-score),Gal3S4S(b1-4)GlcNAc,0.084
same,glycan array binding signal (z-score),Gal3S6S(b1-4)GlcNAc,-0.387
same,glycan array binding signal (z-score),Gal3S6S(b1-4)GlcNAc6S,-0.19
same,glycan array binding signal (z-score),Gal4S(b1-4)GlcNAc,-0.294
same,glycan array binding signal (z-score),Gal4S6S(b1-4)GlcNAc,-0.533
same,glycan array binding signal (z-score),Gal6P(b1-4)GlcNAc,-0.206
same,glycan array binding signal (z-score),Gal6S(b1-3)GlcNAc,-0.343
same,glycan array binding signal (z-score),Gal6S(b1-3)GlcNAc6S,0.905
same,glycan array binding signal (z-score),Gal6S(b1-4)Glc,-0.064
